The source of these data is publication PMC4336329 (PLoS ONE, 2015).

Molecules are shown by their SMILES. Hit rate of the full screen: of about 310,000 compounds, about 14,000 (4.5%) showed an effect of 50% or more. Effects have a minus sign here. The list shows a part of the results.
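Note: peak tail current of the secondary pulse compared with the same well before compound.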

In this test the target is human ether-à-go-go-related gene (hERG) potassium channel (human, UniProt Q12809). Briefly: primary screen, population patch clamp on CHO cells stably expressing hERG.
Chain of human ether-à-go-go-related gene (hERG) potassium channel (Q12809 whole entry, looked up): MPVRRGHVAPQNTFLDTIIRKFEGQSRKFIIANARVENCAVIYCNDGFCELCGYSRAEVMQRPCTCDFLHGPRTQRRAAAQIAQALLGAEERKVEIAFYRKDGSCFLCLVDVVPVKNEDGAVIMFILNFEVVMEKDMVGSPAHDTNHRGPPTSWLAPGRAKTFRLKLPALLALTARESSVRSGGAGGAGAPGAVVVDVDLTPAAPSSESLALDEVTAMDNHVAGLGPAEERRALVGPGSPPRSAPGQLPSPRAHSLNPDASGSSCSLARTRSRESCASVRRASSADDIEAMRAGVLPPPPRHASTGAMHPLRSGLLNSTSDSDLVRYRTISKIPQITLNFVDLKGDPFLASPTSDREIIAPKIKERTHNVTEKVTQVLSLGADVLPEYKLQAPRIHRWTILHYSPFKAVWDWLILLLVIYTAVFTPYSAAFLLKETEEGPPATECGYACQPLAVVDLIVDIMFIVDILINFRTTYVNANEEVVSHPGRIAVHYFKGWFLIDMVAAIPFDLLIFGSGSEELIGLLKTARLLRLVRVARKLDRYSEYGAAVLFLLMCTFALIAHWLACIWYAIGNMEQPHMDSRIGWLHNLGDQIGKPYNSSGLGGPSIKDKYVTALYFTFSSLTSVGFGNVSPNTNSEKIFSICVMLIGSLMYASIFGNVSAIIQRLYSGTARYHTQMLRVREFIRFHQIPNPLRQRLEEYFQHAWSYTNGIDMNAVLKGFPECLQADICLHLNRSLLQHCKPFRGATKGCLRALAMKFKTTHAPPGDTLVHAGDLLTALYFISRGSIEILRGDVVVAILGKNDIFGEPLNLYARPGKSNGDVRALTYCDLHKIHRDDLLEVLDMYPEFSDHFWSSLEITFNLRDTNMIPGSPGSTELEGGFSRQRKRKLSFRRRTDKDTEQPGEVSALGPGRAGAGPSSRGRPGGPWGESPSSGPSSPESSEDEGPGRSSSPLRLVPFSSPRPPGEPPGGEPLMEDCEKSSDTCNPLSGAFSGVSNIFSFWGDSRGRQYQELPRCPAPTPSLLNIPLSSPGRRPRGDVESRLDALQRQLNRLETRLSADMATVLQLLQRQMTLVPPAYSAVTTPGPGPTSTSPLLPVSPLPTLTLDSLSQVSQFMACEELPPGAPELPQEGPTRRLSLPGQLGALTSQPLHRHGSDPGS
On to `O=C(NCCS(=O)(=O)N1CCN(c2ccccc2)CC1)c1ccccc1F`, for which the “hERG current change (%, negative = inhibition) at 10uM” value was found to be 6.68%. The value for `CC1=CC(=C2C(=O)NC(=S)NC2=O)C=C(C(F)(F)F)N1CCc1ccccc1` was 12.9%. As for `Cc1csc(NC(=O)c2cc(=O)[nH]c3ccccc23)n1`, the “hERG current change (%, negative = inhibition) at 10uM” value was 7.02%. `CCCn1c(N)c(C(=O)CN2CCc3ccccc3C2)c(=O)n(C)c1=O`: the “hERG current change (%, negative = inhibition) at 10uM” value is on record as -27.7%.

On to `C=C(C)C1CC=C(C)/C(=N/NC(=O)COc2ccccc2Cl)C1` (centres unmarked), for which the “hERG current change (%, negative = inhibition) at 10uM” value stood at 19.8%. The result for `O=C(NCCc1csc(-c2ccccc2)n1)c1ccc(Br)o1` reads -21.9%; that for `O=C(c1cnn(-c2cccc(F)c2)c1)c1ccccc1O`, 5.63%; that for `CC(NC(=O)COc1cccnc1[N+](=O)[O-])c1ccc(F)cc1` (centres unmarked), 2.07%. The value for `O=C(CCC(=O)N(CC(=O)NC1CCCCC1)CC1CCCO1)Nc1nccs1` (centres unmarked) was 5.65%; that for `COc1ccc(C2CC(=O)N(c3ccccc3)C3=C2C(=O)CCC3)cc1` (centres unmarked) was 13.1%. The result for `Cc1nc2ccc(NC(=S)N3CCC(C)CC3)cc2nc1C` reads -43.2%; that for `COc1ccc(/C=N/NC(=O)c2nc(Cl)c(Cl)c(N)c2Cl)cc1COc1ccccc1F`, -4.09%; that for `CCOC(=O)C1=C(O)CSC1=Nc1ccccc1`, 1.34%. `COc1ccc(Oc2ncccc2[N+](=O)[O-])cc1`: the “hERG current change (%, negative = inhibition) at 10uM” value is on record as 6.57%. As to `O=C(Nc1cccc(F)c1)N1CCC(n2c(=O)[nH]c3ccccc32)CC1`, the “hERG current change (%, negative = inhibition) at 10uM” value is reported as -19%. The value for `CCOc1ccc(S(=O)(=O)N(CC)CC)cc1NS(=O)(=O)c1ccc(F)c(F)c1F` was -1.09%. With `CCOc1ccc(NC(=O)CCc2ccc(C)o2)cc1`, the “hERG current change (%, negative = inhibition) at 10uM” value is recorded as 14.6%.

In the case of `COCCNC(=O)c1c(N)n(-c2cccc(C)c2)c2nc3ccccc3nc12`, the “hERG current change (%, negative = inhibition) at 10uM” value is on record as -24.7%.

`Cc1c(C(=O)N2CCN(Cc3ccccc3)CC2)sc2ncnc(N3CCOCC3)c12`: the “hERG current change (%, negative = inhibition) at 10uM” value was -26.4%. Regarding `COc1ccccc1CNC(=O)C1CCN(S(=O)(=O)N2CC(C)CC(C)C2)CC1` (centres unmarked), the “hERG current change (%, negative = inhibition) at 10uM” value was determined as 11.2%.

For the compound `COC(=O)c1sccc1NC(=O)C1CC=CCC1C(=O)O` (centres unmarked), the “hERG current change (%, negative = inhibition) at 10uM” value worked out at 18.7%. In the case of `COc1ccc(N2C(=O)C3CCCN3C2c2cccc(Br)c2)cc1` (centres unmarked), the “hERG current change (%, negative = inhibition) at 10uM” value is -0.299%. The result for `Cc1cc(OCCN2CC2)c2ccccc2n1` reads -8.54%; that for `COCCn1c(SCC(=O)c2[nH]c(C)c(C(C)=O)c2C)nc2ccccc21`, -11.3%. The result for `COc1ccc(NC(=O)NC23CC4(C)CC(C)(CC(C)(C4)C2)C3)cc1OC` reads 9.32%; that for `Cn1ncc2c(NNC(=O)c3ccc(Cl)c(Cl)c3)ncnc21`, -15.9%. The result for `Cc1cccc(-c2nnc(SCC3CNC(=O)O3)n2-c2ccc(Cl)cc2)c1` (centres unmarked) reads -40.3%. On to `O=C(NCc1ccccc1)C1CCC(CNS(=O)(=O)c2cccs2)CC1` (centres unmarked), for which the “hERG current change (%, negative = inhibition) at 10uM” value was determined as 10.5%. The result for `Cc1cc(C)c(S(=O)(=O)N2CCN(C(=O)c3ccc(-n4cncn4)c([N+](=O)[O-])c3)CC2)c(C)c1` reads -62.5%; that for `CC(C)CN(C(=O)COC(=O)CNC(=O)c1ccc(Cl)cc1)C1CCS(=O)(=O)C1` (centres unmarked), 12.7%. For `Cc1ccccc1NC(=O)CSc1nnc(-c2ccccn2)o1`, the “hERG current change (%, negative = inhibition) at 10uM” value is recorded as 4.41%. The value for `CCC(C)NC(=O)CC1Oc2ccc(Cl)cc2NC1=O` (centres unmarked) was 6.64%; that for `NC(=O)c1oc2ccccc2c1NC(=O)Cc1ccccc1` was 17.7%; that for `Cc1c(CC(=O)O)c(=O)oc2cc(OCc3nn[nH]n3)ccc12` was -0.585%.

On to `CSc1nnc2ccc(-c3cccs3)nn12`, for which the “hERG current change (%, negative = inhibition) at 10uM” value is -8.27%.

As to `COc1ccc(C2C(C(=O)c3ccco3)=C(O)C(=O)N2CC2CCCO2)cc1` (centres unmarked), the “hERG current change (%, negative = inhibition) at 10uM” value is reported as -3.78%. The result for `COc1ccccc1Cn1c(=O)oc2ccc(C)cc21` reads -2.44%; that for `C[C@H](NC(=O)c1ccccc1)C(=O)OCC(=O)Nc1ccc2c(c1)OCO2`, -1.08%; that for `Cn1c(SCCOc2ccc(Cl)cc2)nnc1-c1ccncc1`, -56.3%. The value for `CCOC(=O)c1cc2c(=O)n3ccccc3nc2n(Cc2ccccc2)c1=N` was -74.6%. As to `CCOc1ccc(-c2nn[nH]n2)cc1OCC`, the “hERG current change (%, negative = inhibition) at 10uM” value amounted to 11.3%. Take `CCCOc1ccc(-c2nnn(CC(=O)N3CCCC(C)C3)n2)cc1` (centres unmarked): the “hERG current change (%, negative = inhibition) at 10uM” value is listed as -0.918%. The value for `O=C1CSC(c2cccnc2)N1Cc1ccc(Cl)c(Cl)c1` (centres unmarked) was -4.85%; that for `O=C(/C=C/c1ccccc1[N+](=O)[O-])NCC1CCCO1` (centres unmarked) was -3.47%. The result for `C=CCc1cccc2cc(C(=O)N3CCN(C(=O)c4ccco4)CC3)c(=O)oc12` reads -1.92%; that for `O=C(OCC(=O)C12CC3CC(CC(C3)C1)C2)c1cnccn1`, 14.8%. The value for `Cc1ccc(C(=O)O/N=C(\N)c2ccccn2)c(Cl)c1` was -0.617%; that for `CCNc1nc2c(c(=O)[nH]c(=O)n2C)n1CC(C)C` was 2.16%. With `Cc1cc2ccccn2c1C(=O)c1ccc([N+](=O)[O-])o1`, the “hERG current change (%, negative = inhibition) at 10uM” value was 9.2%.

In the case of `C=CCOC(=O)C1=C(C)NC(SC)=C(C#N)C1c1cccs1` (centres unmarked), the “hERG current change (%, negative = inhibition) at 10uM” value was -15.1%. As to `CCCCCn1c(=O)[nH]c2cc(C(=O)NCCc3ccc(OC)c(OC)c3)ccc2c1=O`, the “hERG current change (%, negative = inhibition) at 10uM” value was determined as 0.0929%. In the case of `CCc1ccccc1N(CC(=O)N1CCc2ccccc2C1)S(C)(=O)=O`, the “hERG current change (%, negative = inhibition) at 10uM” value stood at 2.16%. The result for `O=C(CSc1nnc(CNC(=O)c2ccco2)o1)Nc1ccc(F)cc1F` reads 8.95%; that for `CN(C)c1cccc(O)c1`, 23.9%; that for `CCOC(=O)c1ccc(NC(=O)c2n[nH]c(=O)c3ccccc23)cc1`, 5.74%. The value for `C/C(Cc1ccccc1)=N\NC(=O)CNC(=O)c1cccc(Cl)c1` was 5.67%. The result for `COc1ccc(Cc2nnc(NC(=O)Nc3ccccc3OC)s2)cc1` reads 24.9%; that for `Cc1nn(CC(=O)Nc2ccc3c(c2)OCO3)c(C)c1Cl`, 0.823%. For `COc1cc(OC)cc(C(=O)NCC(=O)OCc2cc(=O)oc3cc(OC)ccc23)c1`, the “hERG current change (%, negative = inhibition) at 10uM” value was determined as 3.36%. The value for `CCN(CC)CCCNC(=O)c1cn(C)c2ccc(S(=O)(=O)N(C)C)cc2c1=O` was 3.07%; that for `CCCCOC(=O)Nc1ccc(S(=O)(=O)Nc2nccs2)cc1` was 1.42%.

Take `CCc1ccccc1NC(=O)CSc1nc(C)c(C)o1`: the “hERG current change (%, negative = inhibition) at 10uM” value stood at 9.02%. For `CCN(CC)CCOc1ccc2c(c1)C(=NNC(=O)c1ccccn1)c1cc(OCCN(CC)CC)ccc1-2`, the “hERG current change (%, negative = inhibition) at 10uM” value was determined as 8.82%.

For the compound `COc1ccc(C(=O)NCCCCCC(=O)O)cc1OC`, the “hERG current change (%, negative = inhibition) at 10uM” value was -13.1%. The result for `CC(C)c1ccc(N=c2c([N+](=O)[O-])nn(-c3ccc4c(c3)OCCO4)n2O)cc1` reads 1.98%; that for `COc1ccc(NC(=O)CCNS(=O)(=O)c2ccc3c(c2)c(=O)n(C)c(=O)n3C)c(OC)c1`, 0.0542%. The value for `Cc1ccc(N2CCN(C(=O)c3ccccc3Br)CC2)c(C)c1` was -8.07%; that for `c1ccc(-c2csc(-n3cccn3)n2)cc1` was 15.5%; that for `CC(C)(C)NC(=O)C1CC(=O)OC1(C)C` (centres unmarked) was 5.53%.

Consider `CS(=O)(=O)N1CCc2cc(C(=O)N3CCN(c4ccccc4F)CC3)ccc21`, for which the “hERG current change (%, negative = inhibition) at 10uM” value is on record as -19.3%. The result for `COc1ccc(C(O)C(CN2CCOCC2)c2ccccc2)cc1F.Cl` (centres unmarked) reads 1.04%. The value for `O=C(Nc1ccccc1)c1csc(-c2ccccc2)n1` was 14.3%; that for `CN1C(=O)/C(=C/c2ccc(OC(=O)c3ccco3)cc2)SC1=S` was -8.91%.

On to `COC(=O)C1=C(c2cccc(C#N)c2)C[C@@H]2CC[C@H]1N2C(=O)NCc1cccc2ccccc12`, for which the “hERG current change (%, negative = inhibition) at 10uM” value is on record as -22.1%.

On to `COC(=O)c1[nH]c2cccc(Cl)c2c1NC(=O)CN1CCN(CCO)CC1`, for which the “hERG current change (%, negative = inhibition) at 10uM” value is -0.514%. Turning to `FC(F)Oc1ccccc1NC(=S)NCCc1ccccc1`, the “hERG current change (%, negative = inhibition) at 10uM” value is listed as -4.2%. The value for `CCC(=O)N1c2ccc(S(=O)(=O)CCC(=O)Nc3nccs3)cc2CC1C` (centres unmarked) was 6%; that for `O=C(COC(=O)C1CCN(S(=O)(=O)c2ccc(Cl)c(C(F)(F)F)c2)CC1)NCc1ccco1` was 1.68%. The value for `COc1ccc(-c2ncncc2-c2ccc(Cl)cc2)c(O)c1` was -46.8%; that for `CC(C)=NN/C(N)=N/C(=S)Nc1ccc(C)cc1` was -3.24%; that for `CCOc1ccc(C(Nc2ccc(C)cc2)P2(=O)OCCC(C)O2)cc1` (centres unmarked) was -18.6%. The value for `CS(=O)(=O)N(CCc1ccccc1)CC(=O)N1CCN(Cc2ccc3c(c2)OCO3)CC1` was -49.7%; that for `O=C(c1ccc(-c2cccc(C(F)(F)F)c2)o1)N1CCCCCCC1` was -3.68%; that for `Cc1ccc(S(=O)(=O)N2CCCCC2)cc1NC(=O)C1CC(=O)N(Cc2ccccc2)C1` (centres unmarked) was -12.9%.

For `CC(=O)Nc1ccc(S(=O)(=O)N2CCN=C2c2ccccc2)cc1`, the “hERG current change (%, negative = inhibition) at 10uM” value was found to be 12.4%.

As to `O=C(c1ccc(S(=O)(=O)Cc2cc(F)ccc2F)c([N+](=O)[O-])c1)N1CCCCC1`, the “hERG current change (%, negative = inhibition) at 10uM” value came to 1.34%. The value for `COc1ccc(NC(C)=O)cc1NC(=O)C1CCN(C(=O)Nc2ccccc2)CC1` was 9.01%; that for `COc1cc(CO)cc(Br)c1OCc1cccnc1` was 13.1%.

On to `Cc1cccc(NC(=O)C(=O)NNC(=O)c2ccc(C(C)(C)C)cc2)c1`, for which the “hERG current change (%, negative = inhibition) at 10uM” value came to 22.4%.
